Source: PubChem BioAssay AID1159614 (National Center for Advancing Translational Sciences (NCATS), 2016)
Among all 45,000 compounds or so, about 65 (0.1%) were called active. Calls come from the whole dose curve; as a rule, active = well fitted activation curve with a large enough effect; inconclusive = small, poorly fitted or top-dose-only effect; inactive = no such curve, though single readings can be large or run the other way. The list shows a part of the results.

target: Galactocerebrosidase (Homo sapiens) (UniProt P54803); assay: A Novel Cell-Based Assay to Identify Small Molecules for B -Galactocerebrosidase; conditions: 145M-Twi-hGALC-G270D cells, HMU-beta-Gal fluorescence, 48 h; series mostly up to 57.5 µM; activation: at the top concentration; note: 0% is about no effect; nearly all actives have a fitted effect of over 65% in size
Chain of UniProt P54803 (P54803 whole entry, looked up): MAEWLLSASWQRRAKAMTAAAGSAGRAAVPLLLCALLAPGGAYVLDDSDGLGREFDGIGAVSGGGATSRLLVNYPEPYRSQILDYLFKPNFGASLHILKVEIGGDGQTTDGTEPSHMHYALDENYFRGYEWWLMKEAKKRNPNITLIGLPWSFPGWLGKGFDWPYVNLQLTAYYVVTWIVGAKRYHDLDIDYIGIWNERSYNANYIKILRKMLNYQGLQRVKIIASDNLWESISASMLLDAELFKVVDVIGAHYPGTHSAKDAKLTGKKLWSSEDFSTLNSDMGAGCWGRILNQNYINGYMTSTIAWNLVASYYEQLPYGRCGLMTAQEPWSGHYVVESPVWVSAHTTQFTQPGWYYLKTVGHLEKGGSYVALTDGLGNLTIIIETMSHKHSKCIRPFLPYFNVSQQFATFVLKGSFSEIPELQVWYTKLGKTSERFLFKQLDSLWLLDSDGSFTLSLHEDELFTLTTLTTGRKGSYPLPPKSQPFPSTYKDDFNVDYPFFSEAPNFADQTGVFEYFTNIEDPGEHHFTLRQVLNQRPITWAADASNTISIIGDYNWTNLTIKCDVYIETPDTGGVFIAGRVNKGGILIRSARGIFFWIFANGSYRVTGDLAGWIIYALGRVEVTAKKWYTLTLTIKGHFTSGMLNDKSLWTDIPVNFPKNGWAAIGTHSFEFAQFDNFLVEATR
Summary of the method: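 qHTS, 1536-well; 145M-Twi-hGALC-G270D cells (WT line also made) in DMEM/F12 + 10% FBS; compound incubation on live cells; HMU-β-gal 0.1 mM final, pH 5.2, NaTC; carbonate stop; fluorescence increase = enhanced residual activity.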

activation, inactive:
Cc1ccc(SCCNC(=O)CN(c2cccc(C)c2C)S(C)(=O)=O)cc1 -11.6%
CCOC(=O)c1ccc(NC(=O)CCc2c(C)nc3cc(-c4ccc(OC)cc4OC)nn3c2C)cc1 -20.5%
CC(=O)Nc1ccc(S(=O)(=O)N2CCC(n3c(C)nc4cccnc43)CC2)cc1 -25.9%
CCC(C)NC(=O)Cn1c(=O)n(-c2cc(OC)cc(OC)c2)c(=O)c2ccccc21 (stereo not given) -13.2%
CCOC(=O)c1c(C)oc2nc(C)nc(NCCc3ccc(OCC)cc3)c12 -14.9%
COc1ccc(C(=O)Nc2ccc(-c3nc4cc(C)ccc4o3)c(O)c2)cc1 -1.08%
CCN1CCC(N(Cc2ccc(F)cc2)C(=O)Nc2ccc(C)c(F)c2)CC1 -26.7%
CCOc1ccc(NC(=O)Cn2cc(C(=O)C3CC3)c3ccccc32)cc1 -11.6%
O=C(CSc1nccn1Cc1ccco1)Nc1ccc(OC(F)(F)F)cc1 -22.3%
Cc1cc(=O)[nH]c2nnc(SCc3cccc(C(F)(F)F)c3)n12 -8.62%
CCOc1ccc(CN(CCc2ccc3c(c2)OCO3)Cc2cc(OC)cc(OC)c2)cc1 -21.9%
Cc1ccc2c(CNCCc3ccco3)c(C(=O)O)n(Cc3ccc(F)cc3)c2c1 -5.69%
COc1ccc(NC(=O)CCCc2nnc3n(C(C)C)c(=O)c4sccc4n23)cc1Cl -4.25%
Cc1nn(-c2ccccc2)c(-n2cccc2)c1C(=O)NCCCN1CCN(c2ccccc2F)CC1 -6.75%
Cc1ccc(OCC(=O)OCc2cc(=O)n3ccsc3n2)cc1C -12%
Cc1nc2ccc(S(=O)(=O)NCC(=O)NCc3ccc(Cl)cc3)cc2s1 -6.87%
COc1ccccc1N1CCN(c2ncc3c(n2)CCN(Cc2ccccc2C)C3)CC1 -4.62%
CCOc1ccc(NC(=O)Cn2c(=O)nc(-c3ccccc3)c3ccccc32)cc1 -5.99%
Cc1ccc(C)c(NC(=O)CSc2cn(CC(=O)N3CCCCC3)c3ccccc23)c1 -5.79%
COc1ccc(OC(=O)c2cc(-c3ccc4c(c3)OCCO4)on2)cc1 -7.29%
Cc1nc(N2CCOCC2)c2c(C(=O)N3CCN(c4cccc(C(F)(F)F)c4)CC3)c(C)oc2n1 -11.2%
COc1ccc(NC(=O)C(Cc2ccccc2)NS(=O)(=O)c2ccc3c(c2)oc(=O)n3C)c(OC)c1 (stereo not given) -10.6%
Cc1cccc2nc(-c3ccc(Cl)s3)c(Nc3ccc4c(c3)OCCO4)n12 -12.1%
CC(C)c1ccc(NC(=O)Cn2nnc(C(=O)NCCc3ccccc3)c2N)cc1 0.569%
COc1cc(Cl)c(NC(=O)CN2C(=O)c3cccnc3Sc3ccccc32)c(OC)c1 -5.15%
Cn1nc(-c2ccc(N3CCCCC3)c(NC(=O)c3ccc(Cl)cc3)c2)c2ccccc2c1=O -7.98%
CN(C)CCNC(=O)c1ccc(Cn2c(=O)c3cccn3c3cccnc32)cc1 -4.04%
CCOc1ccccc1NC(=O)c1nn(C)c2c1CSc1ccccc1-2 3.33%
COc1ccc(C)cc1NC(=O)CN1C(=O)COc2ccc(S(=O)(=O)NC3CCCC3)cc21 -18.1%
CCOc1ccc(-c2csc(-c3c(N)c(C(=O)c4ccc5c(c4)OCO5)n4ccccc34)n2)cc1 -7.91%
CC(=O)c1cccc(Nc2ccc3cc(S(=O)(=O)N4CCCC4)ccc3n2)c1 -8.25%
CCCn1c(=NC(=O)c2c(-c3c(F)cccc3Cl)noc2C)c(C(=O)OCC)cc2c(=O)n3ccccc3nc21 -8.47%
COc1ccc(NC(=O)c2cc(=O)c3ccc(C)c(C)c3o2)cc1Cl -24.1%
Cc1ccc(-n2ncc(C(=O)NCCN3CCc4ccccc4C3)c2C2CCNCC2)cc1C -24.1%
Cc1ccccc1CSc1nc2c([nH]c3ccccc32)c(=O)n1C -12.1%
CCOC(=O)c1cc(S(=O)(=O)Nc2ccccc2OCC)[nH]n1 -4.37%
COc1ccc(-n2c(=O)c3c4c(sc3n3c(SC(C)C)nnc23)COC(C(C)C)C4)cc1 (stereo not given) -9.86%
CCCc1cc(=O)[nH]c(SCc2nc(-c3ccccc3F)no2)n1 -1.07%
CCOc1ccc(NC(=O)C(C)Sc2nc3ncccc3o2)cc1 (stereo not given) -6.92%
CCN(CC)CCN -19.3%
CC1CCN(S(=O)(=O)c2ccc3c(c2)N(CC(=O)NCCCN2CCCC(C)C2)C(=O)CS3)CC1 (stereo not given) -5.78%
Cc1cccc(CNC(=O)c2ccc(NC(=O)N3CCSc4ncccc43)cc2)c1 1.32%
Cc1cccc(NC(=O)c2oc3ccc(S(=O)(=O)N4CCC5(CC4)OCCO5)cc3c2C)c1C -9.47%
Cc1ccc2c(c1)-c1ncc(C(=O)c3cc(Br)ccc3O)cc1CO2 12.3%
CC(=O)c1ccc(N2CCN(c3ncnc4c3cnn4C)CC2)cc1 -9.1%
COc1ccc(-n2nc(C(=O)Nc3cccc(C)n3)c3c4ccccc4n(C)c3c2=O)cc1 -1.58%
Cc1cc(C)cc(NC(=O)Cn2c(=O)n(Cc3ccc4c(c3)OCO4)c(=O)c3oc4ccccc4c32)c1 5.03%
Cc1cccc(CNC(=O)Cn2ccc3cc(S(=O)(=O)N4CCC(C)CC4)ccc32)c1 -7.18%
CCOC(=O)C1CCN(C(=O)Cn2ncc3c([nH]c4ccccc43)c2=O)CC1 3.6%
CCOC(=O)c1c(C)[nH]c(C)c1S(=O)(=O)N(C)CC(=O)Nc1cccc(C(F)(F)F)c1 3.08%
COc1cccc(C2CC(=O)Nc3c2c(=O)n(C)c2nc4ccccc4n32)c1 (stereo not given) -10.4%
COc1ccccc1-c1cc(C(F)(F)F)nc(S(=O)(=O)CCCC(=O)Nc2ccc(F)cc2F)n1 -14.5%
COc1ccc(-c2ccc(CCC(=O)O)n2-c2cc(Cl)ccc2O)cc1 -11%
O=C(Cn1c(=O)n(Cc2nc(-c3ccccc3)no2)c(=O)c2cc3c(cc21)OCO3)Nc1cccc(C(F)(F)F)c1 -18.2%
Cc1cccc(C(=O)Nc2nc(-c3nnn(-c4cc(C)ccc4C)c3C)ns2)c1 -24.6%
CCOC(=O)c1cnc(N2CCN(c3ccc(C)cc3C)CC2)c2ccccc12 -10.5%
Cn1c(=O)c2c(SCC(=O)Nc3ccc(F)cc3F)nc(C3CCCC3)nc2n(C)c1=O 5.02%
CC(C)(C)c1ccccc1NC(=O)c1cnn2c(C(F)F)cc(-c3ccccc3)nc12 -13.2%
COc1ccccc1NC(=O)CSc1oc(-c2ccc(F)cc2)nc1S(=O)(=O)c1ccc(Br)cc1 -9.64%
Cc1ccccc1CNC(=O)c1ccc2[nH]c(C)c(C)c2c1 3.09%
CSc1cccc(NC(=O)CN2C(=O)COc3ccc(S(=O)(=O)N4CCC(C)CC4)cc32)c1 -14%
Cc1ccc(C)c(NC(=O)Cn2ccn(-c3ccc(F)cc3)c(=O)c2=O)c1 -10.4%
Cc1ccc(-c2nc3c4ccccc4n(CC(=O)N4CCN(c5ccc(F)cc5)CC4)c(=O)n3n2)cc1 -2.16%
OC1C(O)C(O)C(O)C(O)C1O (stereo not given) -7.36%
Cc1cc(C)cc(Nc2cc(C)nc3nc(-c4ccco4)nn23)c1 -8.02%
Cc1ccc(CN(C(=O)c2ccccc2[N+](=O)[O-])c2ccccn2)cc1 -27.2%
Cc1cc(N2CCC(C(=O)NCCC(C)C)CC2)n2nc(C)c(-c3ccc(Cl)cc3)c2n1 -4.21%
CCC(C)NC(=O)Cn1c(-c2cccs2)cc2cc(Cl)ccc21 (stereo not given) -12.7%
CCOC(=O)c1c(NC(=O)c2cc(-c3ccc(Cl)cc3)on2)sc(C)c1C -17.8%
CCOc1ccc(CCNC(=O)c2ccc3c(c2)sc2nc(-c4ccc(F)cc4)cn23)cc1OCC -13.7%
O=S(=O)(NCCc1csc2nc(-c3ccc(F)cc3)nn12)c1ccc(Oc2ccccc2)cc1 -17.9%
Cc1cc(C)cc(N2C(=O)CCSC23C(=O)N(Cc2ccccc2)c2ccccc23)c1 (stereo not given) 3.67%
CC(C)(C)NC(=O)c1ccc2nc(CCc3ccccc3)oc2c1 -17.3%
Cc1ccc(Cl)cc1NC(=O)Cn1ncc2c(C)n(Cc3ccccc3F)c(C)c2c1=O -19%
CC1CN(C(=O)CCC(=O)NCc2ccccc2)c2cc(Cl)ccc2O1 (stereo not given) -5.73%
COc1ccc(-c2nc(-c3ccccc3)c(-c3ccc(F)cc3)[nH]2)c(OC)c1C -4.19%
Cc1nc2sccn2c(=O)c1S(=O)(=O)Nc1ccc(N2CCN(C(=O)C(C)C)CC2)cc1 -5.84%
COc1cc(C(=O)Nc2nonc2-c2ccc(Cl)cc2)cc(OC)c1OC 1.91%
Cc1ccc(N2CC(NC(=O)C3CC3)CC2=O)cc1C (stereo not given) -12.8%
CCOC(=O)c1ccn(-c2nc(-c3cccc(OC)c3)cc(C(F)(F)F)n2)n1 -14.2%
CCOC(=O)c1[nH]c(C)c(CCC(=O)Nc2ccc(Br)c(C)c2)c1C -13.7%
COc1cccc(NC(=O)N(Cc2c[nH]c3ccccc23)C2CCCCC2)c1 -4.66%
Cc1ccc(C(CC(=O)Nc2ccc(F)c(Cl)c2)N2Cc3ccccc3C2=O)cc1 (stereo not given) -3.89%
CC(C)c1ccc(NC(=O)CCn2c(=O)c3cccn3c3ccccc32)cc1 -6.77%
COc1cccc(CNCCSc2nnnn2C)c1OCc1ccc(F)cc1 -9.38%
CCOc1ccc(C(c2c(O)cc(C)n(Cc3ccco3)c2=O)N2CCN(c3ccccc3)CC2)cc1 (stereo not given) -15.9%
COc1ccc(NC(=O)CSC2=Nc3ccccc3C3=NC(CC(=O)NCc4ccc5c(c4)OCO5)C(=O)N23)cc1 (stereo not given) -0.965%
CCCc1cnc2c(c1SCC(=O)Nc1ccccc1F)c(=O)n(C)c(=O)n2C -19.3%
Cc1cccc(CNC(=O)C2CCN(S(=O)(=O)c3ccc4c(c3)CCCN4C(=O)C3CCC3)CC2)c1 -12.3%
CCCCCc1nn2cc(-c3ccccc3)nc2s1 -0.936%
Cn1nnnc1SCCCNCc1cc(Cl)ccc1OCc1ccccc1F -8.72%
COC(=O)c1ccc(NC(=O)CC2C(=O)N(c3ccccc3)C(=O)N2Cc2ccco2)cc1 (stereo not given) -7.61%
Cc1ccc(NC(=O)Cn2cnc3sc(C)c(S(=O)(=O)N4CCN(c5ncccn5)CC4)c3c2=O)cc1F -9.65%
Cc1cccc(N2CCN(S(=O)(=O)c3c(C(=O)N4CCC(C)CC4)c(C)n(C)c3C)CC2)c1C -7.98%
COc1cc(Nc2ncc3c(n2)CCN(Cc2cc(F)cc(F)c2)C3)cc(OC)c1 -28.2%
